The list shows a part of the results. Cut-off read from the data, not from the text of the source: active = 3.2 or more and inactive = the rest. Only a few entries rise above the background.
Legend:
Test in all cases: enrichment score (SH2-bound / input frequency) (ratio); bacterial display of known human phosphotyrosine sites (pTyr-Var adds point mutants) read by sequencing; higher = stronger binding; tyrosines were phosphorylated by kinases first
Conditions in all cases: peptide library: Human pTyr
[1] = target: SHP2 C-SH2 domain E139D
[2] = target: SHP2 C-SH2 domain wild-type
[3] = target: SHP2 N-SH2 domain L43F
[4] = target: SHP2 N-SH2 domain T42A
[5] = target: SHP2 N-SH2 domain T52S
[6] = target: SHP2 N-SH2 domain wild-type
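Note: displayed peptides selected on beads carrying the immobilized SH2 domain, with library peptides lacking any tyrosine serving as negative controls.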

Binder | enrichment score [1] | enrichment score [2] | enrichment score [3] | enrichment score [4] | enrichment score [5] | enrichment score [6]
AQAMGSGYTKAVARV [PKDCC_HUMAN_148_YA] | inactive: 0.801 | inactive: 0.756 | inactive: 0.749 | inactive: 0.974 | inactive: 0.652 | inactive: 0.925
DPVNHEWYPHYFVLT [PLCG1_HUMAN_506] | inactive: 1.24 | inactive: 1.23 | inactive: 1.29 | inactive: 1.21 | inactive: 1.38 | inactive: 1.26
DPVNHEWYPHAFVLT [PLCG1_HUMAN_506_YA] | inactive: 1.25 | inactive: 1.29 | inactive: 1.33 | inactive: 1.3 | inactive: 1.26 | inactive: 1.32
EPDAGALYEGRNPGF [PLCG1_HUMAN_775_YA] | inactive: 0.543 | inactive: 0.472 | inactive: 0.518 | inactive: 0.489 | inactive: 0.541 | inactive: 0.634
ALGINSGYSKRALML [PLD2_HUMAN_415] | inactive: 0.545 | inactive: 0.405 | inactive: 0.499 | inactive: 0.428 | inactive: 0.567 | inactive: 0.479
KGASDEIYVVPDDSQ [ARHGAP5_HUMAN_1109_YA] | inactive: 1.33 | inactive: 1.44 | inactive: 1.1 | inactive: 1.29 | inactive: 1.42 | inactive: 1.46
NHPDYEEYINLEGTR [ARHGAP5_HUMAN_306] | inactive: 1.01 | inactive: 0.822 | inactive: 0.897 | inactive: 0.712 | inactive: 0.795 | inactive: 0.648
SSPDDPNYSLVDDYS [PPIP2_HUMAN_323] | inactive: 0.854 | inactive: 0.912 | inactive: 0.835 | inactive: 0.869 | inactive: 0.886 | inactive: 0.866
VFLKSWVYQPGEDTE [PR15A_HUMAN_391] | inactive: 1.1 | inactive: 1.01 | inactive: 1.03 | inactive: 1.08 | inactive: 1.27 | inactive: 1.43
EDEHSVNYKPPAQKS [ARHGDIA_HUMAN_27] | inactive: 0.744 | inactive: 0.803 | inactive: 0.705 | inactive: 0.706 | inactive: 0.718 | inactive: 0.77
NRPPPNAYELFAKGA [PRMT5_HUMAN_297_YA] | inactive: 1 | inactive: 1.01 | inactive: 0.96 | inactive: 0.81 | inactive: 0.943 | inactive: 1.15
YELFAKGYEDYLQSP [PRMT5_HUMAN_304] | inactive: 0.638 | inactive: 0.614 | inactive: 0.541 | inactive: 0.53 | inactive: 0.555 | inactive: 0.515
EGTPEGLYLGGGGGG [PRS4_HUMAN_439] | inactive: 0.586 | inactive: 0.456 | inactive: 0.45 | inactive: 0.468 | inactive: 0.507 | inactive: 0.504
EEGKGAVYSFDPVGS [PSB1_HUMAN_150] | inactive: 0.56 | inactive: 0.625 | inactive: 0.622 | inactive: 0.527 | inactive: 0.563 | inactive: 0.569
MLGASGDYADFQYLK [PSB4_HUMAN_102] | inactive: 0.658 | inactive: 0.611 | inactive: 0.716 | inactive: 0.611 | inactive: 0.686 | inactive: 0.545
TIPSQRRYVAAASAL [PTEN_HUMAN_174_YA] | inactive: 0.89 | inactive: 1.02 | inactive: 0.716 | inactive: 0.796 | inactive: 0.798 | inactive: 0.816
DQSRQMKYQSFNEAR [PTGS2_HUMAN_446_YA] | inactive: 0.845 | inactive: 0.74 | inactive: 0.689 | inactive: 0.769 | inactive: 0.741 | inactive: 0.928
ALEKKSNYEVLEKDV [PTK2_HUMAN_194] | inactive: 1.31 | inactive: 1.31 | inactive: 1.19 | inactive: 1.22 | inactive: 1.25 | inactive: 1.43

Binder | enrichment score [1] | enrichment score [2] | enrichment score [3] | enrichment score [4] | enrichment score [5] | enrichment score [6]
SKRKGHEYTNIKYSL [PTN11_HUMAN_546] | active: 3.39 | active: 4.11 | inactive: 3.13 | active: 3.51 | active: 4.5 | active: 4.79
TGDYYDLYGGEKFAT [PTN11_HUMAN_66] | inactive: 0.71 | inactive: 0.782 | inactive: 0.685 | inactive: 0.716 | inactive: 0.47 | inactive: 0.419
TGDAADLYGGEKFAT [PTN11_HUMAN_66_YA] | inactive: 0.599 | inactive: 0.589 | inactive: 0.358 | inactive: 0.414 | inactive: 0.379 | inactive: 0.44
SAEEAPLYSKVTPRA [PTN18_HUMAN_389] | inactive: 0.808 | inactive: 0.629 | inactive: 0.67 | inactive: 0.454 | inactive: 0.612 | inactive: 0.641
VVLVDPEYLKERRVA [ARRB1_HUMAN_47_YA] | inactive: 0.573 | inactive: 0.566 | inactive: 0.58 | inactive: 0.633 | inactive: 0.685 | inactive: 0.781
AVQTEEQYRFLAHTV [PTPN18_HUMAN_281_YA] | inactive: 0.627 | inactive: 0.702 | inactive: 0.751 | inactive: 0.794 | inactive: 0.716 | inactive: 0.837
YIDAFSDYANFKGGG [PTPRA_HUMAN_798] | inactive: 0.79 | inactive: 0.833 | inactive: 1.04 | inactive: 0.731 | inactive: 0.726 | inactive: 0.613
VVLVDPDYLKDRKVF [ARRB2_HUMAN_48] | inactive: 0.679 | inactive: 0.507 | inactive: 0.638 | inactive: 0.719 | inactive: 0.689 | inactive: 0.574
DSKVDLIYQNTTAMT [PTPRJ_HUMAN_1311] | inactive: 0.729 | inactive: 0.603 | inactive: 0.626 | inactive: 0.612 | inactive: 0.692 | inactive: 0.662
WEKARPEYMLPVHFY [PYGB_HUMAN_197] | inactive: 0.972 | inactive: 1.14 | inactive: 1.11 | inactive: 1.02 | inactive: 1.09 | inactive: 1.29
ETRICKIYDSPCLPE [RAD51_HUMAN_315] | inactive: 0.875 | inactive: 0.707 | inactive: 0.666 | inactive: 0.764 | inactive: 0.667 | inactive: 0.735
SRIGDELYLEPLEDG [RAD9A_HUMAN_28] | inactive: 1.19 | inactive: 0.977 | inactive: 1.12 | inactive: 1.15 | inactive: 1.25 | inactive: 1.15
GQRDSSAYWEIEASE [RAF1_HUMAN_341_YA] | inactive: 1.01 | inactive: 0.824 | inactive: 0.809 | inactive: 0.763 | inactive: 0.994 | inactive: 0.874
NVYYGQDYRNKYKAP [RAPH1_HUMAN_456] | inactive: 1.58 | inactive: 1.97 | inactive: 1.45 | inactive: 1.77 | inactive: 1.5 | inactive: 1.77
VKHFTNPYCNIYLNS [RASA1_HUMAN_615] | inactive: 2.6 | inactive: 2.37 | inactive: 2.03 | inactive: 2.04 | inactive: 2.33 | inactive: 2.54
SPLDKDTYPPSASVV [RBM15_HUMAN_266] | inactive: 0.507 | inactive: 0.571 | inactive: 0.876 | inactive: 0.689 | inactive: 0.569 | inactive: 0.603
SALAEDRYLLGTSLA [ASSY_HUMAN_87_YA] | inactive: 0.521 | inactive: 0.45 | inactive: 0.359 | inactive: 0.507 | inactive: 0.462 | inactive: 0.531
ITDEQRQYYVNQFKT [REPS1_HUMAN_288] | inactive: 0.788 | inactive: 0.888 | inactive: 0.672 | inactive: 0.757 | inactive: 0.759 | inactive: 0.957
